The list shows a part of the results. At the low end of the ranking the order means little.
The sequences below were run against T1, GST-Rok-C97-191 (UniProt O34857) (assay: protein binding microarray). Settings: Rok is a gene silencer of Bacillus subtilis; high values mean tight binding; most listed sequences are background and not binding sites; double strand, one strand shown.
T1 sequence: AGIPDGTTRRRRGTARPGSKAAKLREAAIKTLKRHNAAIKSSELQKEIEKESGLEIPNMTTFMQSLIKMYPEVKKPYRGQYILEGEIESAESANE
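Also: rank score from −0.5 (least bound) to 0.5 (best bound).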

Sequence	binding signal
AAAGACCT	-0.0765 E-score
CTCCACAC	-0.0448 E-score
ATGGGGTA	0.128 E-score
CAATTCAC	-0.057 E-score
AACTTTAG	-0.0144 E-score
AGATGTAC	0.241 E-score
GAGTCCCA	0.00589 E-score
TCGAGCGA	0.00557 E-score
CGCCCCAC	-0.289 E-score
TATGGAAA	0.0318 E-score
GCCTATAC	0.162 E-score
GTGGGGGA	-0.227 E-score
AGGGTTGA	-0.224 E-score
CCGACCTA	-0.0176 E-score
CTGCATGC	-0.138 E-score
CATTCATC	-0.0118 E-score
GCGGGCGA	-0.374 E-score
ACCGTTCC	-0.0133 E-score
AACCTCTT	-0.0952 E-score
CTAGAATA	0.241 E-score
AGATCAGA	0.226 E-score
TGCTACCA	0.099 E-score
ACGTAATC	-0.0356 E-score
AAAGTTGC	0.0237 E-score
ATCGGTCC	-0.119 E-score

Sequence	binding signal
CGATGTGA	-0.117 E-score
CTTCTGAA	-0.0549 E-score
TGATCCCA	-0.105 E-score
ATCGCTCA	-0.0831 E-score
ACCTAGAA	0.142 E-score
ACCATGGT	0.132 E-score
CGCGCGTA	0.0765 E-score
AACCATGC	-0.113 E-score
CTAGGTGC	0.0387 E-score
CGATTGTA	0.144 E-score
AACATATA	0.208 E-score
AACTAACG	0.263 E-score
AATTCGAG	0.139 E-score
ACCAGAGC	-0.232 E-score
CCTACGAG	-0.0397 E-score
ACCCGGGA	-0.0399 E-score
ACAAATGC	-0.0581 E-score
ATGATTAG	0.16 E-score
CAATAGAG	0.143 E-score
ACTTCTTA	0.266 E-score
AGGGTTTA	0.0461 E-score
CAATGCAG	-0.0565 E-score
GCACATAC	-0.0559 E-score
TACTTTAA	0.273 E-score
CCCCGAAG	-0.202 E-score

Sequence	binding signal
AGCCGTCA	-0.289 E-score
AATCCCGT	-0.143 E-score
AATTGCCG	0.182 E-score
CTTTCTGC	-0.0564 E-score
CCGTTACA	0.111 E-score
CGAACGAC	-0.189 E-score
GGTTACGA	-0.148 E-score
AACGCGAC	-0.0921 E-score
GAAGTTTA	-0.0766 E-score
CACGTCGG	-0.235 E-score
AATCAACA	0.109 E-score
CAGGAGGG	-0.27 E-score
GAGCTACA	0.151 E-score
GGTTGACA	-0.0966 E-score
CCATACTC	-0.0208 E-score
ACGATGCT	0.0784 E-score
CTATTCTC	-0.0995 E-score
CCATGGCA	-0.0622 E-score
CGAATTCA	-0.0458 E-score
CCTGGAGC	0.0729 E-score
AGCCACCA	0.0177 E-score
CCTAGCCC	-0.201 E-score
TGTAGTAA	0.286 E-score
CCCACCTA	-0.0708 E-score
ATCACTTG	0.141 E-score

Sequence	binding signal
GTTTGCGA	0.0625 E-score
TAGGAGAA	0.261 E-score
AGCTTTCG	-0.16 E-score
CCGCGCAG	-0.186 E-score
AATAGTAT	0.332 E-score
ACGGATCT	-0.0876 E-score
ACTTTTCG	0.229 E-score
CAGGGGAG	-0.324 E-score
ACGAGTGC	-0.00382 E-score
AGGACACG	-0.182 E-score
GCGTGCCA	-0.298 E-score
AACTCTGC	0.0553 E-score
GTAAAGAC	0.0109 E-score
AGAGTGTA	0.0487 E-score
GGTGTTAA	-0.0608 E-score
ACCCGGCC	-0.223 E-score
CCCCCGCA	-0.284 E-score
ACGATTAA	-0.0187 E-score
TACGAACA	0.121 E-score
ATGCCTTC	-0.0914 E-score
CGGGCGGA	-0.117 E-score
CCACCATC	-0.144 E-score
CCCTGGAA	-0.186 E-score
ATGATGCG	0.117 E-score
CCGAAGCC	-0.193 E-score

Sequence	binding signal
CGAACTCA	-0.117 E-score
AGGAGACG	-0.19 E-score
CGCTTCGC	-0.182 E-score
AGCATATA	0.212 E-score
AATGGGGG	-0.299 E-score
GTCCACGA	-0.173 E-score
CCTCCTTA	-0.0457 E-score
CCAGATTA	-0.119 E-score
TAAGACCA	-0.101 E-score
GCTAGACC	-0.185 E-score
AAGGGAGC	-0.131 E-score
CGAGACAG	-0.167 E-score
CCTGTTTC	-0.0662 E-score
CGTTATGA	-6.11e-05 E-score
CCACAACG	-0.13 E-score
ATAATAAG	0.331 E-score
AAACCCGA	-0.0717 E-score
GCAAACCC	-0.0548 E-score
CGGTTCGA	-0.00271 E-score
CTCTTATA	0.0955 E-score
CAGCCGAA	0.0509 E-score
ATAAACCG	0.12 E-score
GCCTGATA	-0.114 E-score
AGGCAAAT	0.0488 E-score
GCGTAGCC	-0.251 E-score

Sequence	binding signal
AGGCTACG	-0.177 E-score
GAACCTAA	-0.00709 E-score
ACGAAGCG	-0.212 E-score
CATCCCGG	-0.209 E-score
CATCCACA	0.0649 E-score
CACATCAG	-0.0403 E-score
GTGCCGGA	-0.0988 E-score
CGGAGACA	-0.109 E-score
ACTAGACA	0.112 E-score
ACGTGCAG	-0.0609 E-score
AGACTATC	-0.0291 E-score
ATAGAGAG	-0.0657 E-score
CTTGCTAA	-0.00851 E-score
CAGGCTCA	-0.178 E-score
ATGGGTGA	-0.194 E-score
GATGGAAA	-0.0063 E-score
AACCCTAG	-0.0348 E-score
AAATGTCC	0.0232 E-score
GTTTAGAA	0.0571 E-score
TGTGTGAA	-0.1 E-score
CTTGCAGC	-0.206 E-score
TAGACTGA	-0.0359 E-score
ACGAATGG	-0.107 E-score
ACCCCGTG	-0.134 E-score
CCTCCGAC	-0.306 E-score

Sequence	binding signal
CAACGCAC	0.0033 E-score
AAACCTAT	0.115 E-score
AGCTGTTA	0.0363 E-score
AATCGGCT	-0.0903 E-score
AGATTCAA	0.183 E-score
AGGAGTGA	-0.0784 E-score
ACGTCTTC	-0.0202 E-score
GAAAAATA	0.273 E-score
CAGCCCAC	-0.133 E-score
AAAACAAA	-0.063 E-score
AAGTACAG	0.256 E-score
CTATATTC	0.274 E-score
AATGGTGA	0.0161 E-score
GGTGCAAA	0.224 E-score
CGGATGCC	-0.149 E-score
CACTATCC	-0.112 E-score
CCAACCCG	-0.123 E-score
GCCTTAGA	-0.109 E-score
TCTGACAA	-0.095 E-score
AAATTCGT	0.18 E-score
AGGATACC	-0.171 E-score
ATCGTCAC	-0.0363 E-score
